Assay results: the supplement of paper PMC12423691
The other results are listed elsewhere or left out. Binding of human transcription factors and regulators to the viral nucleoprotein by AlphaScreen, crude cell-free proteins, amounts not normalised, one pass. Fold of the Venus control; higher = more signal. No active / inactive call. Single-pass screen; sequences are the whole Swiss-Prot entries looked up by name.

B1: RARB, P10826 (protein)
chain: MTTSGHACPVPAVNGHMTHYPATPYPLLFPPVIGGLSLPPLHGLHGHPPPSGCSTPSPATIETQSTSSEELVPSPPSPLPPPRVYKPCFVCQDKSSGYHYGVSACEGCKGFFRRSIQKNMIYTCHRDKNCVINKVTRNRCQYCRLQKCFEVGMSKESVRNDRNKKKKETSKQECTESYEMTAELDDLTEKIRKAHQETFPSLCQLGKYTTNSSADHRVRLDLGLWDKFSELATKCIIKIVEFAKRLPGFTGLTIADQITLLKAACLDILILRICTRYTPEQDTMTFSDGLTLNRTQMHNAGFGPLTDLVFTFANQLLPLEMDDTETGLLSAICLICGDRQDLEEPTKVDKLQEPLLEALKIYIRKRRPSKPHMFPKILMKITDLRSISAKGAERVITLKMEIPGSMPPLIQEMLENSEGHEPLTPSSSGNTAEHSPSISPSSVENSGVSQSPLVQ
B2: TAF1B, Q53T94 (protein)
chain: MDLEEAEEFKERCTQCAAVSWGLTDEGKYYCTSCHNVTERYQEVTNTDLIPNTQIKALNRGLKKKNNTEKGWDWYVCEGFQYILYQQAEALKNLGVGPELKNDVLHNFWKRYLQKSKQAYCKNPVYTTGRKPTVLEDNLSHSDWASEPELLSDVSCPPFLESGAESQSDIHTRKPFPVSKASQSETSVCSGSLDGVEYSQRKEKGIVKMTMPQTLAFCYLSLLWQREAITLSDLLRFVEEDHIPYINAFQHFPEQMKLYGRDRGIFGIESWPDYEDIYKKTVEVGTFLDLPRFPDITEDCYLHPNILCMKYLMEVNLPDEMHSLTCHVVKMTGMGEVDFLTFDPIAKMAKTVKYDVQAVAIIVVVLKLLFLLDDSFEWSLSNLAEKHNEKNKKDKPWFDFRKWYQIMKKAFDEKKQKWEEARAKYLWKSEKPLYYSFVDKPVAYKKREMVVNLQKQFSTLVESTATAGKKSPSSFQFNWTEEDTDRTCFHGHSLQGVLKEKGQSLLTKNSLYWLSTQKFCRCYCTHVTTYEESNYSLSYQFILNLFSFLLRIKTSLLHEEVSLVEKKLFEKKYSVKRKKSRSKKVRRH
B3: FOXI1, Q12951 (protein)
chain: MSSFDLPAPSPPRCSPQFPSIGQEPPEMNLYYENFFHPQGVPSPQRPSFEGGGEYGATPNPYLWFNGPTMTPPPYLPGPNASPFLPQAYGVQRPLLPSVSGLGGSDLGWLPIPSQEELMKLVRPPYSYSALIAMAIHGAPDKRLTLSQIYQYVADNFPFYNKSKAGWQNSIRHNLSLNDCFKKVPRDEDDPGKGNYWTLDPNCEKMFDNGNFRRKRKRKSDVSSSTASLALEKTESSLPVDSPKTTEPQDILDGASPGGTTSSPEKRPSPPPSGAPCLNSFLSSMTAYVSGGSPTSHPLVTPGLSPEPSDKTGQNSLTFNSFSPLTNLSNHSGGGDWANPMPTNMLSYGGSVLSQFSPHFYNSVNTSGVLYPREGTEV
B4: PLAGL2, Q9UPG8 (protein)
chain: MTTFFTSVPPWIQDAKQEEEVGWKLVPRPRGREAESQVKCQCEISGTPFSNGEKLRPHSLPQPEQRPYSCPQLHCGKAFASKYKLYRHMATHSAQKPHQCMYCDKMFHRKDHLRNHLQTHDPNKEALHCSECGKNYNTKLGYRRHLAMHAASSGDLSCKVCLQTFESTQALLEHLKAHSRRVAGGAKEKKHPCDHCDRRFYTRKDVRRHLVVHTGRKDFLCQYCAQRFGRKDHLTRHVKKSHSQELLKIKTEPVDMLGLLSCSSTVSVKEELSPVLCMASRDVMGTKAFPGMLPMGMYGAHIPTMPSTGVPHSLVHNTLPMGMSYPLESSPISSPAQLPPKYQLGSTSYLPDKLPKVEVDSFLAELPGSLSLSSAEPQPASPQPAAAAALLDEALLAKSPANLSEALCAANVDFSHLLGFLPLNLPPCNPPGATGGLVMGYSQAEAQPLLTTLQAQPQDSPGAGGPLNFGPLHSLPPVFTSGLSSTTLPRFHQAFQ
B5: RORB, Q92753 (protein)
chain: MCENQLKTKADATAQIEVIPCKICGDKSSGIHYGVITCEGCKGFFRRSQQNNASYSCPRQRNCLIDRTNRNRCQHCRLQKCLALGMSRDAVKFGRMSKKQRDSLYAEVQKHQQRLQEQRQQQSGEAEALARVYSSSISNGLSNLNNETSGTYANGHVIDLPKSEGYYNVDSGQPSPDQSGLDMTGIKQIKQEPIYDLTSVPNLFTYSSFNNGQLAPGITMTEIDRIAQNIIKSHLETCQYTMEELHQLAWQTHTYEEIKAYQSKSREALWQQCAIQITHAIQYVVEFAKRITGFMELCQNDQILLLKSGCLEVVLVRMCRAFNPLNNTVLFEGKYGGMQMFKALGSDDLVNEAFDFAKNLCSLQLTEEEIALFSSAVLISPDRAWLIEPRKVQKLQEKIYFALQHVIQKNHLDDETLAKLIAKIPTITAVCNLHGEKLQVFKQSHPEIVNTLFPPLYKELFNPDCATGCK
B6: AEBP2, Q6ZN18 (protein)
chain: MAAAITDMADLEELSRLSPLPPGSPGSAARGRAEPPEEEEEEEEEEEEAEAEAVAALLLNGGSGGGGGGGGGGVGGGEAETMSEPSPESASQAGEDEDEEEDDEEEEDESSSSGGGEEESSAESLVGSSGGSSSDETRSLSPGAASSSSGDGDGKEGLEEPKGPRGSQGGGGGGSSSSSVVSSGGDEGYGTGGGGSSATSGGRRGSLEMSSDGEPLSRMDSEDSISSTIMDVDSTISSGRSTPAMMNGQGSTTSSSKNIAYNCCWDQCQACFNSSPDLADHIRSIHVDGQRGGVFVCLWKGCKVYNTPSTSQSWLQRHMLTHSGDKPFKCVVGGCNASFASQGGLARHVPTHFSQQNSSKVSSQPKAKEESPSKAGMNKRRKLKNKRRRSLPRPHDFFDAQTLDAIRHRAICFNLSAHIESLGKGHSVVFHSTVIAKRKEDSGKIKLLLHWMPEDILPDVWVNESERHQLKTKVVHLSKLPKDTALLLDPNIYRTMPQKRLKRTLIRKVFNLYLSKQ
B7: IRF2, P14316 (protein)
chain: MPVERMRMRPWLEEQINSNTIPGLKWLNKEKKIFQIPWMHAARHGWDVEKDAPLFRNWAIHTGKHQPGVDKPDPKTWKANFRCAMNSLPDIEEVKDKSIKKGNNAFRVYRMLPLSERPSKKGKKPKTEKEDKVKHIKQEPVESSLGLSNGVSDLSPEYAVLTSTIKNEVDSTVNIIVVGQSHLDSNIENQEIVTNPPDICQVVEVTTESDEQPVSMSELYPLQISPVSSYAESETTDSVPSDEESAEGRPHWRKRNIEGKQYLSNMGTRGSYLLPGMASFVTSNKPDLQVTIKEESNPVPYNSSWPPFQDLPLSSSMTPASSSSRPDRETRASVIKKTSDITQARVKSC
B8: ZNF215, Q9UL58 (protein)
chain: MQPLSKLMAISKPRNLSLREQREVLRADMSWQQETNPVVETHDSEASRQKFRHFQYLKVSGPHEALSQLWELCLQWLRPEIHTKKQIIELLVLEQFLAILPEEVRTWVNLQHPNNSKDMVTLIEDVIEMLEDEDMPCKDSALQMGSIKEKMKAGSRTGKPQEPVTFKDVVVEFSKEEWGQLDSAVKNLYRNVMLENFRNLNSLRKAHLLSKPFESLKLESKKKRWIMEKEIPRKTIFDMKSISGEESSHGVIMTRLTESGHPSSDAWKGENWLYRNQKKWDINLPQEAFIPETIYTEEEDFECSENKKSFDINSVSSICAIQVGIPSRKGSPKCDKFKTYFKFNLDSVGKQHSEYEYGNDLSLSTDIRHQKSHTTMNSYECYQCGKAFCRSSSLIRHQIIHTGEKPYKCSECGRFFNRRTNLTKHQKLHAEAKACTSNKCGKAFSKSEDSNNPTLHFGNNFYQCVNCGKSFNRSSSLIRHQMIHTGEKPFKCKECSKAFNRSSNLVKHQKLHTRDKS
B9: KLF10, Q13118 (protein)
chain: MLNFGASLQQTAEERMEMISERPKESMYSWNKTAEKSDFEAVEALMSMSCSWKSDFKKYVENRPVTPVSDLSEEENLLPGTPDFHTIPAFCLTPPYSPSDFEPSQVSNLMAPAPSTVHFKSLSDTAKPHIAAPFKEEEKSPVSAPKLPKAQATSVIRHTADAQLCNHQTCPMKAASILNYQNNSFRRRTHLNVEAARKNIPCAAVSPNRSKCERNTVADVDEKASAALYDFSVPSSETVICRSQPAPVSPQQKSVLVSPPAVSAGGVPPMPVICQMVPLPANNPVVTTVVPSTPPSQPPAVCPPVVFMGTQVPKGAVMFVVPQPVVQSSKPPVVSPNGTRLSPIAPAPGFSPSAAKVTPQIDSSRIRSHICSHPGCGKTYFKSSHLKAHTRTHTGEKPFSCSWKGCERRFARSDELSRHRRTHTGEKKFACPMCDRRFMRSDHLTKHARRHLSAKKLPNWQMEVSKLNDIALPPTPAPTQ
B10: ARRB1, P49407 (protein)
chain: MGDKGTRVFKKASPNGKLTVYLGKRDFVDHIDLVDPVDGVVLVDPEYLKERRVYVTLTCAFRYGREDLDVLGLTFRKDLFVANVQSFPPAPEDKKPLTRLQERLIKKLGEHAYPFTFEIPPNLPCSVTLQPGPEDTGKACGVDYEVKAFCAENLEEKIHKRNSVRLVIRKVQYAPERPGPQPTAETTRQFLMSDKPLHLEASLDKEIYYHGEPISVNVHVTNNTNKTVKKIKISVRQYADICLFNTAQYKCPVAMEEADDTVAPSSTFCKVYTLTPFLANNREKRGLALDGKLKHEDTNLASSTLLREGANREILGIIVSYKVKVKLVVSRGGLLGDLASSDVAVELPFTLMHPKPKEEPPHREVPENETPVDTNLIELDTNDDDIVFEDFARQRLKGMKDDKEEEEDGTGSPQLNNR

target: nucleoprotein N of Crimean-Congo hemorrhagic fever virus; assay: AlphaScreen luminescence signal relative to Venus negative control (fold); higher = stronger binding to CCHFV N
Description: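 AlphaScreen binding of cell-free made, FLAG-GST-tagged human transcription factors and regulators (crude translation products) to biotinylated N protein; signal as fold of the FLAG-GST-Venus control. One pass.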

| Binder | AlphaScreen luminescence signal |
| --- | --- |
| B1 | 3.91 |
| B2 | 2.7 |
| B3 | 1.67 |
| B4 | 2.88 |
| B5 | 4.09 |
| B6 | 2.47 |
| B7 | 3.67 |
| B8 | 2.05 |
| B9 | 2.7 |
| B10 | 2.56 |
